Results as given in PubChem BioAssay AID588342 (National Center for Advancing Translational Sciences (NCATS), 2011).
About 25,000 (6.9%) of roughly 360,000 compounds were called active. The shares of active, inactive and inconclusive entries below differ from those in the screen. The call rests on the fitted dose curve; in most records, active means well fitted inhibition curve with a large enough effect; inconclusive means small, poorly fitted or top-dose-only effect; inactive means flat fitted curve, though single readings scatter. Potencies beside an inconclusive call are fits to weak or partial responses and may not hold up.

Molecular target: Luciferin 4-monooxygenase (Photinus pyralis) (UniProt P08659)
Assay: qHTS profiling assay for firefly luciferase inhibitor/activator using purifed enzyme and Km concentrations of substrates (counterscreen for miR-21 project); further: nearly all actives have a fitted effect of over 55% in size
Settings: purified FLuc, luminescence inhibition; series mostly up to 57.5 µM
Summary of the method: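 Purified P. pyralis luciferase (10nM final) with 10uM D-luciferin and 10uM ATP (Km levels) in 50mM Tris acetate pH 7.5, 10mM Mg acetate, 0.01% Tween-20, 0.05% BSA; qHTS 6-point titration, ~60 µM downward; luminescence read.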
Potency means the concentration at half of the fitted maximal effect; tags describe the fitted curve by direction and shape.

Sequence of UniProt P08659 (P08659 whole entry, looked up): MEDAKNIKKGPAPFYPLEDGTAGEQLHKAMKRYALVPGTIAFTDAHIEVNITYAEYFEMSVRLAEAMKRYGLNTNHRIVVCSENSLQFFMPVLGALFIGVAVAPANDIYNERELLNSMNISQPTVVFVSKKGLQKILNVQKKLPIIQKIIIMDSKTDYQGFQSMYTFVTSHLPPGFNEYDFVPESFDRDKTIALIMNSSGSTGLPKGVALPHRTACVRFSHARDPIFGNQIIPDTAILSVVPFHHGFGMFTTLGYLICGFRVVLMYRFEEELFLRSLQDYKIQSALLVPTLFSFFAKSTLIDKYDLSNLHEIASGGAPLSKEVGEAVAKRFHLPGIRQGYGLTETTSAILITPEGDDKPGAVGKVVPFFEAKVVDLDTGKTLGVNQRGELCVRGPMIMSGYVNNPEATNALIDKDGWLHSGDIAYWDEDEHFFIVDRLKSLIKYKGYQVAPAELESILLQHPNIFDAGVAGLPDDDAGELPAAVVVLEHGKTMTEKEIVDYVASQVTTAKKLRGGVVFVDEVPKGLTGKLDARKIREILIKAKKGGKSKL

| SMILES | Potency |
| --- | --- |
| COc1ccc(Nc2cc(C(=O)NCCCN3CCN(C)CC3)c3ccccc3n2)c(OC)c1 | inconclusive: 23.9 µM [inhibitor, single point] |
| CC(C)(C)SCCNC(=O)/C=C/c1ccc(F)cc1 | inconclusive: 23.9 µM [inhibitor, single point] |
| COc1cccc(NC(=O)CSc2nnc(Cc3cccn3C)n2-c2ccc(F)cc2)c1 | inactive |
| Cc1ccc(C2C=C(c3ccc(Cl)cc3)Nc3nc(NC(=O)c4ccco4)nn32)cc1 (configuration not stated) | inconclusive: 26.9 µM [inhibitor, partial curve, poor fit] |
| Cc1nc2ccc(S(=O)(=O)Nc3cc(-c4nc5cccnc5s4)ccc3C)cc2s1 | active: 19 µM |
| Cc1ccc(C(=O)Nc2ccc(N3CCOCC3)cc2)cc1 | active: 12 µM |
| CSc1nc2sc3c(c2c(=O)[nH]1)CC(C)(C)OC3 | inconclusive: 30.1 µM [inhibitor, single point] |
| COc1cc(/C=C/[N+](=O)[O-])ccc1OCc1cccc(C(=O)O)c1 | active: 0.213 µM |
| N#C/C(=C(/O)CCl)c1nc2c(s1)CCc1ccccc1-2 | inconclusive: 30.1 µM [inhibitor, partial curve, poor fit] |
| Cc1cc(C)n2nc(/C(C#N)=C/c3ccccc3)c(C#N)c2n1 | inconclusive: 23.9 µM [inhibitor, partial curve, poor fit] |
| O=C(Nc1nnc(C2CC2)s1)c1ccc(Cl)nc1 | active: 12 µM |
| COc1ccc(Cc2nnc(SC)[nH]c2=O)cc1OC | inactive |
| CCOc1ccc(C(c2c(O)cc(C)n(Cc3ccco3)c2=O)N2CCN(c3ccccc3)CC2)cc1 (configuration not stated) | inconclusive: 21.3 µM [inhibitor, single point] |
| Cc1cnc(NC(=O)C2CCC(C(C)(C)C)CC2)s1 (configuration not stated) | active: 19 µM |
| Cn1c(CN2CCCCC2)nc2cc(NC(=O)c3ccccc3)ccc21 | inconclusive: 16.9 µM [inhibitor, partial curve] |
| N#Cc1c(N2CCSCC2)nsc1-c1ccccc1Cl | inconclusive: 23.9 µM [inhibitor, partial curve] |
| CN(Cc1nnc(-c2ccc(F)cc2)o1)c1ccccc1 | inconclusive: 37.9 µM [inhibitor, partial curve, poor fit] |
| COc1ccc(O)c(/C=N/n2c(-c3ccco3)csc2=Nc2cccnc2)c1 | inactive |
| CCOc1ccc2c3c(c(=O)oc2c1OCC)CCCC3 | inconclusive: 26.9 µM [inhibitor, partial curve, poor fit] |
| COc1cccc(NC(=O)N(Cc2c[nH]c3ccccc23)C2CCCCC2)c1 | inactive |
| CC(C)c1ccc(NC(=O)CCn2c(=O)c3cccn3c3ccccc32)cc1 | inconclusive: 10.7 µM [inhibitor, partial curve, poor fit] |
| Cc1cc(C(=O)NNC(=O)c2ccccc2O)c(C)o1 | inconclusive: 26.9 µM [inhibitor, partial curve, poor fit] |
| CCn1c(=O)cc(OCC(=O)Nc2cccnc2)c2ccccc21 | inactive |
| COc1cc(C(=O)Nc2nonc2-c2ccc(Cl)cc2)cc(OC)c1OC | inconclusive: 19 µM [inhibitor, partial curve, poor fit] |

| SMILES | Potency |
| --- | --- |
| O=C(O)c1cccc(Oc2ncnc3sc4c(c23)CCCC4)c1 | inconclusive: 26.9 µM [inhibitor, single point] |
| CCc1ccc2oc(C(=O)Nc3nonc3C)c(C)c2c1 | active: 2.13 µM |
| CC(C)(C)NC(=O)c1ccc2nc(CCc3ccccc3)oc2c1 | inconclusive: 21.3 µM [inhibitor, partial curve, poor fit] |
| O=C(CN1C(=O)/C(=C/c2ccc(F)cc2)SC1=S)NC1CCS(=O)(=O)C1 (configuration not stated) | inactive |
| C/C(=N\O)c1sc(-c2ccccc2)nc1C | active: 8.49 µM |
| Cc1nc(CCNC(=O)c2ccccc2)cs1 | inconclusive: 26.9 µM [inhibitor, partial curve, poor fit] |
| N/C(=N\OC(=O)C1CCCCC1)c1ccncc1 | inconclusive: 19 µM [inhibitor, partial curve] |
| O=C(CS)Nc1ccc2ccccc2c1 | inactive |
| O=C(/C=C/c1ccc(-c2cccc([N+](=O)[O-])c2)o1)N1CCOCC1 | inconclusive: 19 µM [inhibitor, partial curve] |
| COc1ccc(C2=NOC(CN3C(=O)c4ccccc4S3(=O)=O)C2)cc1 (configuration not stated) | active: 2.13 µM |
| COc1ccc(NC(=O)c2cccc(N3C(=O)C4C5C=CC(C6CC56)C4C3=O)c2)c(OC)c1 (configuration not stated) | inconclusive: 21.3 µM [inhibitor, single point] |
| CC(C)(C)OC(=O)N/N=C/c1cccn1-c1ccc([N+](=O)[O-])cc1 | inconclusive: 23.9 µM [inhibitor, partial curve] |
| COc1ccc2c(c1)c(=O)oc1cc(OCC(=O)NCC3CCC(C(=O)O)CC3)ccc12 (configuration not stated) | active: 10.7 µM |
| O=C(Cn1nnc(-c2ccc(F)cc2)n1)Nc1cccc(S(=O)(=O)N2CCCC2)c1 | inconclusive: 26.9 µM [inhibitor, single point] |
| O=C(NC1CCCCC1)c1cc(-c2ccc(O)cc2)on1 | inconclusive: 7.57 µM [inhibitor, full curve] |
| c1ccc(-c2csc(NC3=NCCCCC3)n2)cc1 | active: 19 µM |
| CCCC(=O)OCC(=O)Nc1ccc(OC(F)F)cc1 | inconclusive: 37.9 µM [inhibitor, partial curve, poor fit] |
| COc1ccc2[nH]cc(CCNC(=O)CS(=O)(=O)Cc3ccccc3)c2c1 | inactive |
| CCc1ccc(NC(=O)C(=O)NCCN2CCN(C(=O)c3ccco3)CC2)cc1 | inconclusive: 37.9 µM [inhibitor, partial curve, poor fit] |
| Cc1cc(C)cc(Nc2cc(C)nc3nc(-c4ccco4)nn23)c1 | inactive |
| CC(=O)N1C(=O)/C(=C2\SC(=S)N(NC(=O)c3ccc(O)cc3)C2=O)c2ccccc21 | inconclusive: 15.1 µM [inhibitor, partial curve, poor fit] |
| Cc1cccc(C(=O)Nc2ccc(O)cc2)c1 | inconclusive: 15.1 µM [inhibitor, partial curve] |
| O=C(CSc1n[nH]c(-c2ccccc2O)n1)N1CCCc2ccccc21 | inconclusive: 21.3 µM [inhibitor, single point] |
| CC(c1nc2ccccc2c(=O)[nH]1)N(C)CCOc1ccc(Cl)cc1 (configuration not stated) | inactive |

| SMILES | Potency |
| --- | --- |
| CSc1cccc(NC(=O)CN2C(=O)COc3ccc(S(=O)(=O)N4CCC(C)CC4)cc32)c1 | inactive |
| CSc1ncccc1C(=O)OCC(=O)NC1CCC(C)CC1 (configuration not stated) | inactive |
| CCOC(=O)Cc1csc(NC(=O)c2cnc3sc(C)cn3c2=O)n1 | inconclusive: 23.9 µM [inhibitor, partial curve] |
| Cc1cc(Cl)nc(SCC(=O)c2ccccc2)n1 | inconclusive: 21.3 µM [inhibitor, single point] |
| Cc1ccc(S(=O)(=O)NCc2ccccc2)cc1C(=O)NC1CCC(C)CC1 (configuration not stated) | inconclusive: 12 µM [inhibitor, partial curve] |
| CCOC(=O)/C(C#N)=C\c1cc(C)n(-c2ccccc2)c1C | active: 0.426 µM |
| COc1ccc(Nc2ccnc(Nc3ccc(OC)cc3)n2)cc1 | active: 7.57 µM |
| CCOC(=O)c1c(NC(=O)C2C3C=CC(C3)C2C(=O)O)sc2c1CCCC2 (configuration not stated) | inconclusive: 37.9 µM [inhibitor, partial curve, poor fit] |
| O=C(O)c1cc(-c2ccc(Cl)cc2)n(-c2ccc(Cl)cc2)n1 | inconclusive: 37.9 µM [inhibitor, single point] |
| CC(C)OP(=O)(c1ccc(N(C)C)cc1)C(O)c1ccc(N(C)C)cc1 (configuration not stated) | inconclusive: 15.1 µM [inhibitor, partial curve, poor fit] |
| COc1ccc(-c2ccc(CCC(=O)O)n2-c2cc(Cl)ccc2O)cc1 | inconclusive: 26.9 µM [inhibitor, single point] |
| N#CCCn1c(SCC(=O)Nc2ccc(N3CCOCC3)cc2)nc2ccccc21 | inconclusive: 37.9 µM [inhibitor, partial curve, poor fit] |
| COc1ccc(NC(=O)CN(C)C(=O)c2cc3c(s2)CCC(C)C3)cc1 (configuration not stated) | active: 15.1 µM |
| Nc1nnc(CC(=O)N/N=C/c2cccc(OCCOc3ccccc3)c2)s1 | inactive |
| Cc1nc(-c2ccccc2)sc1C1(C)CC(c2ccc(OC(F)(F)F)cc2)=NO1 (configuration not stated) | inconclusive: 30.1 µM [inhibitor, partial curve, poor fit] |
| CCOC(=O)Cn1c(-c2ccccc2)ccc(C#N)c1=O | inactive |
| COc1nc(OC)nc(Oc2ccc([N+](=O)[O-])cc2Cl)n1 | inactive |
| COc1cccc(C2CC(=O)Nc3c2c(=O)n(C)c2nc4ccccc4n32)c1 (configuration not stated) | inconclusive: 30.1 µM [inhibitor, partial curve, poor fit] |
| CCCCN1CNC(=S)N(c2ccc(C(=O)OCC)cc2)C1 | inactive |
| CCOc1cc(/C=N/Nc2nc(-c3cccc(S(=O)(=O)N4CCCC4)c3)cs2)ccc1O | inactive |
| Cc1cccc(CNC(=O)Cn2ccc3cc(S(=O)(=O)N4CCC(C)CC4)ccc32)c1 | inactive |
| Cc1ccc(NC(=O)c2cc(-c3ccco3)nc3ccccc23)cc1S(=O)(=O)N1CCOCC1 | inconclusive: 37.9 µM [inhibitor, partial curve, poor fit] |
| COc1ccc(/C=C(\C#N)C(=O)NC2CCS(=O)(=O)C2)cc1OC (configuration not stated) | inactive |
| COc1ccc(-c2cc(-c3n[nH]c(=S)n3-c3cc(OC)ccc3OC)[nH]n2)cc1 | inconclusive: 16.9 µM [inhibitor, partial curve] |
